Data on 29 compounds can be found in the antibiotic and cytotoxicity screens of Wong et al. (2023).

This is one part of the list.

Assay [1] concerns HSkMC (human skeletal muscle cells). In words: cytotoxicity call (relative viability < 0.9). Conditions: 10 µM.
Assay [2] deals with HepG2. In words: cytotoxicity call (relative viability < 0.9). Conditions: 10 µM.
For assay [3], the system named is S. aureus RN4220. In words: growth inhibition call (relative growth <= 0.2). The note with it: 50 µM.

Consider `Cc1noc(C)c1S(=O)(=O)Nc1ccc2c(c1)C(=O)N([C@@H](C)CO)C[C@H](C)[C@H](CN(C)Cc1ccc(C(F)(F)F)cc1)OCCCC[C@@H](C)O2`, for which the cytotoxicity call in assay [1] is “inactive”. The cytotoxicity call in assay [2] was “active”. In assay [3], the growth inhibition call is “inactive”.

Take `Nc1ccccc1C(=O)N[C@H]1CCCCNC1=O`: the cytotoxicity call in assay [1] and in assay [2] was “inactive” in each case. In assay [3], the growth inhibition call is “inactive”.

Regarding `COC(=O)c1c2oc(c1C(=O)OC)C(=O)N[C@H](Cc1ccccc1)Cn1cc(nn1)[C@H](Cc1ccccc1)NC(=O)N[C@@H](CO)CC2`, the cytotoxicity call in assay [1] and in assay [2] was “inactive” in each case. The growth inhibition call in assay [3] is “inactive”.

For the compound `C1CCC(C(CC2CCCCN2)C2CCCCC2)CC1.O=C(O)C=CC(=O)O` (configuration not stated), the cytotoxicity call in assay [1] and in assay [2] was “active” each time. For the same compound, the growth inhibition call in assay [3] is “active”.

For the compound `Cc1ccc(S(=O)(=O)N(C)C[C@@H]2Oc3ccc(NC(=O)Cn4cnnn4)cc3CC(=O)N([C@H](C)CO)C[C@H]2C)cc1`, the cytotoxicity call in assay [1] and in assay [2] was “inactive” in each case. The growth inhibition call in assay [3] was “inactive”.

Regarding `CCOC(=O)CSc1nc(=O)cc(C)[nH]1`, the cytotoxicity call in assay [1] and in assay [2] was “inactive” in each case. The growth inhibition call in assay [3] was “inactive”.

As for `NCCN1C(=O)c2[nH]nc(-c3ccccc3)c2[C@H]1c1ccccc1`, the cytotoxicity call in assay [1] was “inactive”. Also, the cytotoxicity call in assay [2] is “active”. For the same compound, in assay [3], the growth inhibition call was “inactive”.

Regarding `C[C@@H]1CN([C@@H](C)CO)C(=O)c2cc(NC(=O)Nc3cccc4ccccc34)ccc2O[C@@H](C)CCCCO[C@@H]1CN(C)S(=O)(=O)c1cn(C)cn1`, the cytotoxicity call in assay [1] and in assay [2] was “inactive” throughout. Also, in assay [3], the growth inhibition call was “inactive”.

For `C[C@H]1CN([C@@H](C)CO)C(=O)Cc2cc(NC(=O)Cc3cn(C)c4ccccc34)ccc2O[C@@H]1CN(C)S(=O)(=O)c1cn(C)cn1`, the cytotoxicity call in assay [1] and in assay [2] was “inactive” throughout. In assay [3], the growth inhibition call is “inactive”.

As for `C[C@H]1CCCCO[C@H](CN(C)CC2CCCCC2)[C@@H](C)CN([C@@H](C)CO)C(=O)c2cc(NS(=O)(=O)c3ccc(F)cc3)ccc2O1`, the cytotoxicity call in assay [1] is “inactive”. In addition, the cytotoxicity call in assay [2] is “active”. Further, in assay [3], the growth inhibition call was “inactive”.

With `CS(=O)(=O)N1C[C@H]2C[C@@H](F)[C@H](O)[C@@H]2C1`, the cytotoxicity call in assay [1] and in assay [2] was “inactive” throughout. The growth inhibition call in assay [3] is “inactive”.

On to `C[C@H](CO)N1C[C@H](C)[C@H](CN(C)C(=O)Nc2ccc(C(F)(F)F)cc2)Oc2c(NC(=O)NC3CCCCC3)cccc2C1=O`, for which the cytotoxicity call in assay [1] is “inactive”. The cytotoxicity call in assay [2] is “active”. For the same compound, the growth inhibition call in assay [3] is “active”.

As for `COc1ccccc1CNC(=O)C[C@H]1C[C@@H]2c3cc(NC(=O)Nc4ccc(C(F)(F)F)cc4)ccc3O[C@@H]2[C@H](CO)O1`, the cytotoxicity call in assay [1] and in assay [2] was “inactive” throughout. Besides, the growth inhibition call in assay [3] was “inactive”.

Take `Cc1ccc(S(=O)(=O)N[C@@H](Cc2ccccc2)C(=O)NCCCn2cc(-c3cccc(/C=C/C(=O)NO)c3)nn2)cc1`: the cytotoxicity call in assay [1] is “inactive”. Also, the cytotoxicity call in assay [2] was “active”. In assay [3], the growth inhibition call is “inactive”.

As to `C[C@@H]1CN([C@H](C)CO)C(=O)c2cc(NC(=O)Nc3ccc(C(F)(F)F)cc3)ccc2O[C@@H]1CN(C)C(=O)Nc1ccc(F)cc1`, the cytotoxicity call in assay [1] and in assay [2] was “active” each time. The growth inhibition call in assay [3] is “inactive”.

`COc1ccc(-c2cnc3c(c2)C(=O)N([C@@H](C)CO)C[C@@H](C)[C@@H](CN(C)C(=O)C2CCOCC2)O3)cc1`: the cytotoxicity call in assay [1] and in assay [2] was “inactive” throughout. Besides, in assay [3], the growth inhibition call is “inactive”.

`CCN(CC)C(C)CN1c2ccccc2Sc2ccccc21.Cl` (configuration not stated): the cytotoxicity call in assay [1] was “inactive”. For the same compound, in assay [2], the cytotoxicity call was “active”. In addition, in assay [3], the growth inhibition call is “inactive”.

As for `O=C(C[C@@H]1CC[C@@H]2[C@H](COC[C@@H](O)CN2S(=O)(=O)c2ccccc2F)O1)NCc1ccccc1F`, the cytotoxicity call in assay [1] and in assay [2] was “inactive” each time. In addition, the growth inhibition call in assay [3] was “inactive”.

`C[C@@H]1CN([C@H](C)CO)C(=O)Cc2cc(NC(=O)c3ccncc3)ccc2O[C@@H]1CN(C)S(=O)(=O)c1ccc(Cl)cc1`: the cytotoxicity call in assay [1] and in assay [2] was “inactive” in each case. Also, the growth inhibition call in assay [3] is “inactive”.

For the compound `CCO[C@@H]1OC(C(=O)N2CCOCC2)=C[C@H](C2CC2)[C@H]1CCCOC(=O)NCCCCCC(=O)NO`, the cytotoxicity call in assay [1] and in assay [2] was “inactive” throughout. Moreover, the growth inhibition call in assay [3] was “inactive”.

On to `O=C(CN1CCOCC1)N[C@H]1CC[C@@H](CCNC(=O)C2CCCCC2)O[C@@H]1CO`, for which the cytotoxicity call in assay [1] and in assay [2] was “inactive” in each case. Moreover, in assay [3], the growth inhibition call is “inactive”.

As to `C[C@H]1CCCCO[C@@H](CN(C)C(=O)Cc2ccccc2)[C@@H](C)CN([C@@H](C)CO)C(=O)c2cc(NC(=O)Cc3ccccc3)ccc2O1`, the cytotoxicity call in assay [1] and in assay [2] was “inactive” throughout. In assay [3], the growth inhibition call is “inactive”.

`CO[C@H]1CN(C)C(=O)c2cc(NS(=O)(=O)CC(F)(F)F)ccc2OC[C@@H](C)N(C(=O)NC(C)C)C[C@@H]1C`: the cytotoxicity call in assay [1] and in assay [2] was “inactive” throughout. Besides, the growth inhibition call in assay [3] was “inactive”.

Turning to `C[C@@H]1CN([C@@H](C)CO)C(=O)c2cc(NS(=O)(=O)c3ccc(Cl)cc3)ccc2O[C@@H]1CN(C)Cc1ccc(C(F)(F)F)cc1`, the cytotoxicity call in assay [1] and in assay [2] was “active” in each case. In assay [3], the growth inhibition call was “inactive”.

On to `C[C@@H]1CN([C@@H](C)CO)C(=O)Cc2cc(NC(=O)Nc3ccc(F)cc3)ccc2O[C@H]1CN(C)C(=O)Nc1ccc(C(F)(F)F)cc1`, for which the cytotoxicity call in assay [1] and in assay [2] was “inactive” throughout. Also, the growth inhibition call in assay [3] was “inactive”.

Turning to `C[C@@H]1CCCCO[C@H](CN(C)C(=O)Nc2ccccc2)[C@H](C)CN([C@@H](C)CO)C(=O)c2cc(NC(=O)c3ccccc3)ccc2O1`, the cytotoxicity call in assay [1] and in assay [2] was “inactive” throughout. Further, the growth inhibition call in assay [3] is “inactive”.

Turning to `C[C@H]1CN([C@@H](C)CO)C(=O)c2cc(NC(=O)Cc3cn(C)c4ccccc34)ccc2O[C@@H]1CN(C)Cc1ccc(C(=O)Nc2ccccc2N)cc1`, the cytotoxicity call in assay [1] is “active”. Also, in assay [2], the cytotoxicity call was “inactive”. Moreover, the growth inhibition call in assay [3] was “inactive”.

Regarding `COc1ccc(NC(=O)Nc2ccc3c(c2)C(=O)N([C@H](C)CO)C[C@H](C)[C@@H](CN(C)C(=O)Nc2ccc(F)cc2)OCCCC[C@@H](C)O3)cc1`, the cytotoxicity call in assay [1] and in assay [2] was “inactive” each time. The growth inhibition call in assay [3] is “inactive”.

For the compound `COc1ccc(CCNC(=O)Nc2nn(Cc3ccc(COc4cccc(OC)c4)cc3)c3ccccc23)cc1`, the cytotoxicity call in assay [1] and in assay [2] was “inactive” in each case. Besides, in assay [3], the growth inhibition call is “inactive”.
